From PubChem BioAssay AID602156 (GNF / Scripps Winzeler lab, 2011)
Values joined by “and” are separate entries in the source; they are usually repeats but may differ in a detail not shown here. Identical values can stand only once. The list shows a part of the results. The main result of the screen is listed elsewhere. These columns were measured beside it and carry no call.

assay: exo-erythrocytic parasite development inhibition – imaging, Malaria Box, P. yoelii, HepG2-A16-CD81EGFP, dose response (AID 602156);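 also: infected cells exposed to compound for 48 hours before fixation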; settings: P. yoelii liver stage in HepG2-A16-CD81EGFP, measured here: liver parasite size at 10 uM

Row | Structure (SMILES) | parasite size
1 | CCCCCc1ccc(OCCCC[n+]2cccc(C)c2)c(CCCCC)c1 | 23.5 um
2 | Cc1nc2cc(-c3ccc(I)cc3)[nH]n2c(=O)c1C | 35.3 um
3 | CCN1CCN(c2c(C(=O)c3ccccc3)cnc3cc(OC)c(OC)cc23)CC1 | 89.8 um
4 | c1ccc(OCCOc2ccc(Nc3c4ccccc4nc4ccccc34)cc2)cc1 | 41.3 um
5 | CC(=O)N(C1=C(N2CCOCC2)C(=O)c2ccccc2C1=O)c1cccc(Cl)c1 | 43.7 um
6 | CC1CC(N(C(=O)c2ccc(Cl)cc2Cl)c2ccccc2)c2ccccc2N1C(=O)c1ccc(Cl)cc1 (stereo not drawn) | 111 um
7 | OC(CNC1CCCCC1)Cn1c2ccccc2c2ccccc21 (stereo not drawn) | 143 um
8 | c1ccc(-c2cc(N3CCN(c4ccccn4)CC3)nc(-c3ccccn3)n2)nc1 | 24.3 um
9 | c1ccc(OCCOc2ccc(Nc3ccnc4cc5ccccc5cc34)cc2)cc1 | 18.1 um
10 | Cc1cccc2c1[nH]c1nc(SCC(C)C)nnc12 | 36.4 um
11 | Fc1ccc(Nc2nc(NCc3ccccc3)c3ccccc3n2)cc1 | 155 um
12 | CCOc1ccc2[nH]c(=O)c(CN(CCN(CC)CC)C(=S)NCCCN(CC)CC)cc2c1 | 121 um
13 | CCCc1ccc(C(=O)NC(=O)c2ccccc2O)cc1 | 23.2 um
14 | CCOC(=O)c1c[nH]c2ccc(C(C)C)cc2c1=O | 31.4 um
15 | Fc1ccccc1Nc1nc(NCc2ccccc2)c2ccccc2n1 | 37.6 um
16 | O=C(c1cnsn1)N1CCCC(COc2cccc(CN3CCC(Cc4ccccc4)CC3)c2)C1 (stereo not drawn) | 69.4 um
17 | c1ccc(CNc2nc(Nc3ccccc3)nc3ccccc23)cc1 | 29.9 um
18 | CC[C@H]1CN2CCc3cc(OC)c(OC)cc3[C@@H]2C[C@@H]1C[C@H]1NCCc2cc(OC)c(OC)cc21 | 26.5 um
19 | Oc1cccc(Nc2nc(NCC3CCCO3)c3ccccc3n2)c1 (stereo not drawn) | 74.3 um
20 | CCn1c(/C=C/C=C2\N(C)c3ccccc3C2(C)C)[n+](Cc2ccccc2)c2ccccc21 | 14 um
21 | COc1cccc(C(=O)NC(c2ccccc2OC)c2cc(Cl)c3cccnc3c2O)c1 (stereo not drawn) | 20.2 um
22 | O=c1c2ccccc2[nH]c2ccc(F)cc12 | 29.6 um
23 | CCN(CC)CCCC(C)Nc1c2ccc(Cl)cc2nc2ccc(OC)cc12 (stereo not drawn) | 26.3 um
24 | CC(=O)N(C)C1=C(N2CCOCC2)C(=O)c2ccccc2C1=O | 38.7 um
25 | O=C(Nc1ccc(C(F)(F)F)cc1)c1ccc(NCCCN2CCCCCC2)c([N+](=O)[O-])c1 | 74.2 um
26 | COc1cccc(N2C(N)=NC(N)=NC2(C)C)c1 | 38.1 um
27 | O=C(c1cccs1)N1CCN(c2ccc([N+](=O)[O-])c(NC3CC3)c2)CC1 | 83.6 um

Row | Structure (SMILES) | parasite size
28 | Cc1ccc(-c2cc3nc4c(c(=O)n3[nH]2)CCCC4)cc1 | 26.4 um
29 | CCOC(=O)c1cnc2ccc(OC)cc2c1NCc1cccs1 | 31.6 um
30 | O=c1c2c([nH]c3ccccc13)CCCCCC2 | 42.5 um
31 | c1ccc(-c2ccc(-c3ccccn3)nc2)nc1 | 22.3 um
32 | Cc1cc(C(=O)Nc2cnn(Cc3ccc(Cl)cc3Cl)c2)no1 | 57.8 um
33 | O=C(c1ccc([N+](=O)[O-])cc1)c1ccc(Cl)c(Cl)c1 | 109 um
34 | CCCCCCCn1c2c(c(=N)c3ccccc31)CCC2 | 23.6 um
35 | CN1CCN(c2ccc(Nc3c4ccccc4nc4ccccc34)cc2)CC1 | 45.8 um
36 | CCOc1ccc(Nc2nc(NCc3ccccc3)c3ccccc3n2)cc1 | 23.7 um
37 | Cc1ccccc1N=Nc1ccc(NC(=O)c2ccco2)c(C)c1 | 51.9 um
38 | Cc1[nH]c2ccc(Br)cc2c(=O)c1CC(C)C | 30.8 um
39 | CCC(=O)NC(c1ccccc1Cl)c1cc(Cl)c2cccnc2c1O (stereo not drawn) | 55.1 um
40 | CCCCN(CCCC)S(=O)(=O)c1ccc(NC(=O)c2ccco2)cc1 | 35.3 um
41 | COC(=O)C1=C(C)NC2=C(C(=O)CC(c3ccccc3Cl)C2)C1c1ccc([N+](=O)[O-])cc1 (stereo not drawn) | 61.1 um
42 | CN(C)c1ccc(-c2n(C)c3ccccc3[n+]2C)cc1 | 46.9 um
43 | CCCCOc1ccc(N(C(C)=O)C2=C(N3CCOCC3)C(=O)c3ccccc3C2=O)cc1 | 74.8 um
44 | CCCc1nc2ccc(NC(=O)c3ccco3)cc2c(=O)n1Cc1ccc(-c2ccccc2)cc1 | 25.8 um
45 | CCC(C)(C)c1ccc(OCCOCC[n+]2ccccc2)c(C(C)(C)CC)c1 | 13.9 um
46 | O=C1C(Nc2ccc(O)cc2)=CC(=NS(=O)(=O)c2cccs2)c2ccccc21 | 12.5 um
47 | CCC(/C=C1\Sc2ccc(OC)cc2N1CCCS(=O)(=O)O)=C\c1sc2ccc(OC)cc2[n+]1CCCS(=O)(=O)O | 18.1 um
48 | CC[n+]1c(/C=C/C=C2\N(C)c3ccccc3C2(C)C)n(-c2ccccc2)c2cc(Cl)ccc21 | 12.5 um
49 | CCC(Sc1nnc(-c2ccc(C)cc2)c(-c2ccc(C)cc2)n1)C(=O)NCCOC (stereo not drawn) | 42.6 um
50 | C=CCc1c(C)[nH]c2ccc(Br)cc2c1=O | 32.5 um
51 | CN(C)c1oc(-c2ccc(Cl)cc2Cl)nc1[P+](c1ccccc1)(c1ccccc1)c1ccccc1 | 19.4 um
52 | CCOC(=O)c1c[nH]c2ccc(OC)cc2c1=O | 30 um and 30.2 um
53 | CCC(C)Nc1nc(NC(C)CC)nc(N2CCCCCC2)n1 (stereo not drawn) | 20.4 um
